# Measurements reported in the supplement of paper PMC8728848.
# The other results are listed elsewhere or left out.
# B1: Cohesin-hDC-ASGPR (Homo sapiens) (protein)
# chain: LDDLDAVRIKVDTVNAKPGDTVRIPVRFSGIPSKGIANCDFVYSYDPNVLEIIEIEPGDIIVDPNPDKSFDTAVYPDRKIIVFLFAEDSGTGAYAITKDGVFATIVAKVKEGAPNGLSVIKFVEVGGFANNDLVEQKTQFFDGGANVGDTTEPATPTTPVTTPTTTDDLDAASQNSKFQRDLVTLRTDFSNFTSNTVAEIQALTSQGSSLEETIASLKAEVEGFKQERQAGVSELQEHTTQKAHLGHCPHCPSVCVPVHSEMLLRVQQLVQDLKKLTCQVATLNNNASTEGTCCPVNWVEHQDSCYWFSHSGMSWAEAEKYCQLKNAHLVVINSREEQNFVQKYLGSAYTWMGLSDPEGAWKWVDGTDYATGFQNWKPGQPDDWQGHGLGGGEDCAHFHPDGRWNDDVCQRPYHWVCEAGLGQTSQESHHHHHH
# Tests used:
# Test in all cases: glycan array binding signal (z-score within array); higher = stronger binding
# Conditions in all cases: glycan notation: IUPAC condensed, linker removed
# [1] = target: Fuc(a1-2)Gal
# How it was run: (§1)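 Glycan array binding is given as a within-array Z-score, which can be read as non-binding when negative. The arrays, 3228 of them, came from the Consortium for Functional Glycomics database and were retained only where the protein sequence was available. Z-scores were averaged across arrays of the same protein sequence at different concentrations or buffers and across linkers.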
# [2] = target: Fuc(a1-2)Gal(b1-3)GalNAc
# How it was run: as §1
# [3] = target: Fuc(a1-2)Gal(b1-3)GalNAc(a1-3)[Fuc(a1-2)]Gal(b1-4)Glc
# How it was run: as §1
# [4] = target: Fuc(a1-2)Gal(b1-3)GalNAc(a1-3)[Fuc(a1-2)]Gal(b1-4)GlcNAc
# How it was run: as §1
# [5] = target: Fuc(a1-2)Gal(b1-3)GalNAc(b1-3)Gal
# How it was run: as §1
# [6] = target: Fuc(a1-2)Gal(b1-3)GalNAc(b1-3)Gal(a1-4)Gal(b1-4)Glc
# How it was run: as §1
# [7] = target: Fuc(a1-2)Gal(b1-3)GalNAc(b1-4)[Neu5Ac(a2-3)]Gal(b1-4)Glc
# How it was run: as §1
# [8] = target: Fuc(a1-2)Gal(b1-3)GlcNAc
# How it was run: as §1
# [9] = target: Fuc(a1-2)Gal(b1-3)GlcNAc(b1-2)Man(a1-3)[Fuc(a1-2)Gal(b1-3)GlcNAc(b1-2)Man(a1-6)]Man(b1-4)GlcNAc(b1-4)GlcNAc
# How it was run: as §1
# [10] = target: Fuc(a1-2)Gal(b1-3)GlcNAc(b1-2)Man(a1-3)[Fuc(a1-2)Gal(b1-3)GlcNAc(b1-2)Man(a1-6)]Man(b1-4)GlcNAc(b1-4)[Fuc(a1-6)]GlcNAc
# How it was run: as §1
# [11] = target: Fuc(a1-2)Gal(b1-3)GlcNAc(b1-3)Gal(b1-4)Glc
# How it was run: as §1
# [12] = target: Fuc(a1-2)Gal(b1-3)GlcNAc(b1-3)GalNAc
# How it was run: as §1
# [13] = target: Fuc(a1-2)Gal(b1-3)GlcNAc(b1-3)[Fuc(a1-2)Gal(b1-3)GlcNAc(b1-6)]GalNAc
# How it was run: as §1
# [14] = target: Fuc(a1-2)Gal(b1-3)GlcNAc(b1-3)[Gal(b1-4)GlcNAc(b1-6)]Gal(b1-4)Glc
# How it was run: as §1
# [15] = target: Fuc(a1-2)Gal(b1-3)GlcNAc(b1-3)[Neu5Ac(a2-6)Gal(b1-4)GlcNAc(b1-6)]Gal(b1-4)Glc
# How it was run: as §1
# [16] = target: Fuc(a1-2)Gal(b1-3)GlcNAc6S
# How it was run: as §1
# [17] = target: Fuc(a1-2)Gal(b1-3)[Fuc(a1-4)]GlcNAc
# How it was run: as §1
# [18] = target: Fuc(a1-2)Gal(b1-3)[Fuc(a1-4)]GlcNAc(b1-2)Man(a1-3)[Fuc(a1-2)Gal(b1-3)[Fuc(a1-4)]GlcNAc(b1-2)Man(a1-3)]Man(b1-4)GlcNAc(b1-4)GlcNAc
# How it was run: as §1
# [19] = target: Fuc(a1-2)Gal(b1-3)[Fuc(a1-4)]GlcNAc(b1-2)Man(a1-3)[Fuc(a1-2)Gal(b1-3)[Fuc(a1-4)]GlcNAc(b1-2)Man(a1-6)]Man(b1-4)GlcNAc(b1-4)[Fuc(a1-6)]GlcNAc(b1-4)[Fuc(a1-6)]GlcNAc
# How it was run: as §1
# [20] = target: Fuc(a1-2)Gal(b1-3)[Fuc(a1-4)]GlcNAc(b1-3)[Fuc(a1-3)[Gal(b1-4)]GlcNAc(b1-6)]Gal(b1-4)Glc
# How it was run: as §1
# [21] = target: Fuc(a1-2)Gal(b1-3)[Fuc(a1-4)]GlcNAc(b1-3)[Gal(b1-4)GlcNAc(b1-6)]Gal(b1-4)Glc
# How it was run: as §1
# [22] = target: Fuc(a1-2)Gal(b1-4)Glc
# How it was run: as §1
binder,measurement,setting,value
B1,glycan array binding signal (z-score),[1],-0.306
same,glycan array binding signal (z-score),[2],-0.496
same,glycan array binding signal (z-score),[3],-0.508
same,glycan array binding signal (z-score),[4],-0.457
same,glycan array binding signal (z-score),[5],0.094
same,glycan array binding signal (z-score),[6],-0.381
same,glycan array binding signal (z-score),[7],0.855
same,glycan array binding signal (z-score),[8],-0.412
same,glycan array binding signal (z-score),[9],-0.221
same,glycan array binding signal (z-score),[10],0.018
same,glycan array binding signal (z-score),[11],-0.503
same,glycan array binding signal (z-score),[12],-0.391
same,glycan array binding signal (z-score),[13],-0.465
same,glycan array binding signal (z-score),[14],-0.38
same,glycan array binding signal (z-score),[15],-0.398
same,glycan array binding signal (z-score),[16],0.912
same,glycan array binding signal (z-score),[17],-0.434
same,glycan array binding signal (z-score),[18],-0.173
same,glycan array binding signal (z-score),[19],-0.214
same,glycan array binding signal (z-score),[20],-0.508
same,glycan array binding signal (z-score),[21],-0.454
same,glycan array binding signal (z-score),[22],-0.252
